From PubChem BioAssay AID330 (DTP/NCI, 2004)
Toxic doses and inconclusive results are not listed. Certain results were filed several times, with different values. This is not the full list of results. There may be further records. Values given together differ for a reason that is not stated; they may come from other doses, times, organisms or constructs than stated.

Tested on: P388 leukemia ip, CD2F1 mice, survival T/C
Test: NCI In Vivo Anticancer Drug Screen. Data for tumor model P388 Leukemia (intraperitoneal) in CD2F1 (CDF1) mice
Conditions: endpoint: median survival time, higher = longer survival

O=C1C(N2CC2)=C(N2CC2)C(=O)c2ncncc21
T/C (dose: 20.0 mg/kg/injection, schedule: Q01DX005 (ip), vehicle: saline): 110 % of control and 153 % of control

CC[C@@]1(O)C[C@H](OC2CC(N(C)C)C(OC3CC(O)C(OC4CCC(=O)C(C)O4)C(C)O3)C(C)O2)c2c(cc3c(c2O)C(=O)c2c(O)ccc(O)c2C3=O)[C@H]1C(=O)OC (stereo partly drawn)
T/C (dose: 7.2 mg/kg/injection, schedule: Q04DX003 (ip), vehicle: water): 105 % of control and 161 % of control

O=C(O)CCCc1ccc(N(CCCl)CCCl)cc1
T/C (dose: 15.0 mg/kg/injection, schedule: Q01DX009 (ip), vehicle: saline + alcohol): 92 % of control and 166 % of control
